# Experimental data as given in ChEMBL document CHEMBL4888484, “Replenishing the malaria drug discovery pipeline: Screening and hit evaluation of the MMV Hit Generation Library 1 (HGL1) against asexual blood stage Plasmodium falciparum ,using a nano luciferase reporter read-out” (2022).
# Hit rate of the full screen: of about 150,000 compounds, about 540 (0.36%) showed an effect of 50% or more. Some of the results follow.
# Test system: Plasmodium falciparum
# Assay: Primary screen in NF54 nanoGlo assay, in single point, at 2uM, 72h; a lower Z score goes with more inhibition
# Assay type: functional, Erythrocyte
# Details: timepoint 72 hour
Structure (SMILES),% Inhibition,Z score
CO[C@H]1CCOC[C@@H]1NC(=O)c1ccccc1-c1ccccc1,-6%,0.76
O=C(N[C@H]1CCCN(CC(F)(F)F)C1)c1cc(Br)ccc1O,-9%,1.06
O=C(CCc1nnc(CCCCc2ccccc2)o1)N1CCC[C@H]1CO,5%,-0.71
CC1CCN(S(=O)(=O)c2ccc3c(ccc(=O)n3CC(=O)NCc3ccccc3)c2)CC1,-4%,0.79
CN(Cc1ccccc1)C(=O)c1cc(NC(=O)C2CCC2)ccc1N1CCN(C(=O)C2CCCC2)CC1,-4%,0.46
CCS(=O)(=O)CC(=O)N1CCC[C@H]1c1nc2ccccc2s1,10%,-1.3
Cc1ncsc1CN1CC[C@@]2(CCCN(C3CCCCC3)C2=O)C1,0%,0.07
O=C(COC(c1ccccc1)c1ccccc1)Nc1cccnc1,-9%,1.12
Cc1cccc(C(=O)N2CCCCC[C@H]2c2noc(-c3cnn(C)c3)n2)n1,-6%,0.56
CN(C)[C@H]1CCN(c2nc3c(c(C(F)(F)F)n2)CCCC3)C[C@H]1CCC(=O)O,-7%,1.28
COc1c2ccc(C(=O)NC[C@H]3CCCN3c3ccccc3)cc2nn1C,-9%,1.7
O=C(NC1CC1)c1cc(O)nc2c(Cl)cccc12,-10%,1.78
CC(C)[C@H](Oc1cccc(Cl)c1)C(=O)N(C)Cc1c[nH]cn1,9%,-1.77
NC(=O)C1(NC(=O)c2cc(-c3ccccc3F)n[nH]2)CCCC1,-8%,1.46
CCn1c(=O)sc2cc(NC(=O)c3ccc4c(c3)OCO4)ccc21,-3%,0.38
CC(C)Cn1ccnc1NC(=O)c1ccc(F)cc1,-17%,2.73
CCCCN(CCCC)C(=O)c1cn(CCOC)c(C)cc1=O,-3%,0.43
CC(NCc1n[nH]c(C(C)(C)C)n1)C1CCCO1 (stereo not drawn),2%,-0.33
Cc1nc(COc2nc(C(C)(C)C)no2)no1,2%,-0.25
OC[C@H]1CCCN1Cc1cccc(OCc2c(F)cccc2Cl)c1,-13%,1.93
COc1cc(C(=O)OCc2ccccn2)cc2c1O[C@@H](C)C2,-6%,0.84
O=C(CCN1CCCCC1)N1CCC([C@]2(c3cccnc3)NC(=O)N(Cc3ccsc3)C2=O)CC1,-9%,1.28
COCCN(CC(N)=O)C(=O)Cc1ccccc1Br,-8%,1.35
Cn1ncc2c(N3C4CCC3CC(O)(Cc3ccc(F)cc3F)C4)ncnc21 (stereo not drawn),14%,-1.49
CCCCC1CCC(NC(=O)N2CCC[C@H]2C(=O)NC)CC1 (stereo partly drawn),-3%,0.32
Cc1oc2ncn(CC(C)C)c(=O)c2c1C(=O)N1CCN(C(=O)c2ccco2)CC1,1%,-0.11
CCn1nccc1CN(CCO)c1cc(C(F)(F)F)nc(-c2ccncc2)n1,7%,-1.02

Structure (SMILES),% Inhibition,Z score
Cc1ccc(-n2nc3c(=O)n(CCCC(=O)NCc4cccnc4)nc(C)c3c2C)cc1,15%,-1.74
CC[C@H](C)N(Cc1cccc(OS(=O)(=O)c2c(C)cccc2Cl)c1)C(=O)C1CCC1,2%,-0.34
C[C@H](NC(=O)c1[nH]nc2ccccc12)C(=O)Nc1ccsc1,-4%,0.57
Nc1ccnc(-c2noc(CCCOCc3ccccc3)n2)n1,-7%,0.96
Cc1nc(N2CCN(c3ccc(N)nc3)CC2)ccc1C#N,8%,-0.93
CC(C)CC[C@H](C)NS(=O)(=O)CC1CCCCC1,-4%,0.4
CCCc1cncnc1N1CCC[C@@]2(CCC(=O)N(Cc3cccnc3)C2)C1,0%,-0.01
COCCc1nc(-c2cc(C#N)cn2C)n([C@H]2CCS(=O)(=O)C2)n1,-3%,0.48
O=C(O)c1ccc(Oc2nccnc2N2CCCCC2)cc1,35%,-3.95
Cn1c(N2CCC(c3nc4c(s3)CCCC4)CC2)cc(=O)n(C)c1=O,-13%,1.51
Nc1c(-c2ccc(F)cc2)nsc1C(=O)NC1CCN(Cc2ccccc2)CC1,40%,-5.16
CN(Cc1cnc(-c2ccccc2)s1)C(=O)Nc1nncs1,-9%,1.12
O=C(O)c1ccc(COc2ccc(CN3CCN4CCC[C@H]4C3)cc2)o1,-14%,2.71
CCc1nc(-c2c(C)cc(C)nc2NC(=O)c2ccc(F)cc2F)no1,-3%,0.37
CCc1ccc2ncn(Cc3nnc4n3CCC4)c(=O)c2c1,9%,-1.26
Cc1nnsc1CN1CCN(C)[C@]2(CCC(=O)N(CC3CC3)CC2)C1,-4%,0.55
CO[C@H](c1cccc(Cl)c1)c1noc(Cn2nc(C(F)(F)F)cc2C)n1,-8%,0.92
CCOc1ccc(Br)cc1NC(=O)NC[C@@H](C)CCO,1%,-0.11
COc1ccc(S(=O)(=O)N2CCC[C@@](F)(C(=O)N3CCOCC3)C2)cc1OC,-18%,1.6
C[C@H](O)CN1CC2(CCC1=O)CCN(c1noc(C3CC3)n1)CC2,1%,-0.14
CC(=O)NC1CCC(N[C@@H](C)c2ccc(C)o2)CC1 (stereo partly drawn),-24%,3.24
CCN1CCN(C(=O)c2cc(C(C)C)n3nccc3n2)CC1,1%,-0.08
Cc1nc(O)c(Br)cc1C(=O)N1CCC[C@H](CCO)CC1,0%,0.07
CCCc1cnc(C)nc1N1CCCn2nc([C@@H](O)c3ccnn3C)cc2C1,10%,-1.83
Cc1[nH]c2ccnn2c(=O)c1CC(=O)NCC1(c2ccc(Cl)cc2)CCCC1,9%,-1.41
CCCN1CCCN(C(=O)N[C@H]2CCCc3nn(C)cc32)CC1,-7%,0.74
CCCONc1nc(N)nc(N(CC)CC)n1,-2%,0.19
